Reference: article PMC7111190 (Chemistry & Biology, 2008)

Columns and labels:
[1] = biological target: GCN4-pVg; experiment: SEC
[2] = biological target: the molecule itself; experiment: AUC + other: circular dichroism
[3] = biological target: the molecule itself; experiment: SEC

| Binder | stoichiometry N [2] | other results |
| --- | --- | --- |
| MKVKQLVDKVEELLSKNYHLVNEVARLVKLVGER [GCN4-pVe] | – | ratio of the heterotetramer complex to the combined homotetramers [1]: ~50 ratio (to 1) |
| MKVKQLVDKVEELLSKNYHLVNEVARLVKLVGERGGC (complex, disulfide bond between the C-terminal cysteines of the two chains) [pVe-ss-pVe] | 2 | – |
| MKVKQLEDVVEELLSVNYHLENVVARLKKLVGERGGC (complex, disulfide bond between the C-terminal cysteines of the two chains) [pVg-ss-pVg] | 2 | – |
| MKVKQLEDAVEELLSANYHLENAVARLKKLVGER [GCN4-pAg] | – | stoichiometry N [3]: 4 |
